Source: PubChem BioAssay AID1240 (Sanford-Burnham Center for Chemical Genomics, 2008)
Out of some 50,000 compounds screened, about 800 (1.6%) showed an effect of 50% or more. The list shows a part of the results.

Each molecule was assayed against Bcl-2-like protein 10 (Homo sapiens) (UniProt Q9HD36) (assay: Phenotype converters, Bcl-B/TR3 peptide binding displacement, primary biochemical FP (AID 1240;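 also: 0% = Bcl-B with tracer peptide and DMSO and 100% = tracer peptide lacking Bcl-B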)). Settings: GST-Bcl-B / FITC-TR3 peptide fluorescence polarization; stronger effect = higher value; compound at 3.75 mg/L.
Chain of UniProt Q9HD36 (Q9HD36 whole entry, looked up): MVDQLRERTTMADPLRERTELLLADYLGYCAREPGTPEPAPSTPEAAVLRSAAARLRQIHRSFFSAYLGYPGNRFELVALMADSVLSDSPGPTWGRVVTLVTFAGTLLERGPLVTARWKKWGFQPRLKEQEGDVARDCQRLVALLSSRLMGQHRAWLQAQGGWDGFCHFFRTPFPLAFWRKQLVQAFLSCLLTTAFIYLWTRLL

SMILES	displacement
O=C(O)C(Cc1ccccc1)N1C(=O)/C(=C/c2ccc(F)cc2)SC1=S (stereo not given)	5.3%
COc1cc(NC(=O)c2cnn3c2NC(c2cccs2)CC3C(F)(F)F)c(OC)cc1Cl (stereo not given)	1.3%
CCC(=O)N(CCC1(c2ccccc2)CCOC(C)(C)C1)Cc1ccc(N(C)C)cc1 (stereo not given)	1.3%
Nc1c(C(=O)Nc2ccccc2)nnn1Cc1ccccc1	-7.1%
O=C(c1cccnc1)N1CCC(Cc2ccccc2)CC1	0.5%
CCCc1ccc(-c2nc(-c3ccc(C)cc3)no2)cc1	-16.3%
Cc1nc2cc(-c3ccc(Cl)cc3)nn2c(C)c1Cl	-3.3%
Fc1ccc(NC(=S)N2CCCc3ccccc32)cc1	-3.9%
Oc1ccc(Br)cc1/C=N/Nc1cc(N2CCOCC2)nc(N2CCOCC2)n1	15.1%
COc1ccc(NC(=O)CN(c2ccc(OC)cc2)S(=O)(=O)c2ccc(C)cc2)cc1	5%
CCOC(=O)CNC(=O)c1cc(C(=O)OC)cc([N+](=O)[O-])c1	5.2%
CCOC(=O)Cc1csc(NC(=O)COc2cc(C)ccc2C(C)(C)C)n1	-1.3%
Cc1ccc(C)c(N2C(=O)C3C4C=CC(C5CC45)C3C2=O)c1 (stereo not given)	2.7%
CC(NC(=O)C(=O)NCCN1CCN(C(=O)c2ccc(Cl)cc2Cl)CC1)c1ccccc1 (stereo not given)	-4.3%
Cc1cccc(NC(=O)CSc2nnc(-c3ccccc3)c(-c3ccccc3)n2)c1	15.1%
O=C(Nc1cccc(Cl)c1)Nc1nnc(COc2ccc(Br)cc2)s1	25.9%
CCOC(=O)c1cc2c(n(-c3ccccc3)c1=O)CCCC2=O	0.6%
CCOC(=O)c1cc(-c2ccc(O)cc2)nc2ccccc12	8.3%
O=C(CSc1nc2ccccc2s1)Nc1ccc(F)c([N+](=O)[O-])c1	-4.2%
COc1ccc(C(=O)Nc2nc3ccccc3s2)c(OC)c1	15%
Cc1ccc(N2C(=O)NC(=O)/C(=C/c3cccc(C(F)(F)F)c3)C2=O)cc1	-4%
Cc1cccc(C(=O)NNC(=O)c2ccc(Cl)cc2)c1O	-4.5%

SMILES	displacement
O=S(=O)(Nc1ccc2c(c1)OCO2)c1ccc2ccccc2c1	15.4%
NS(=O)(=O)c1ccc(-c2ccc(/C=C3/SC(=S)N(CC(=O)O)C3=O)o2)cc1	-123%
C=CCNC(=O)C(=O)Nc1ccc(Cl)c(Cl)c1	10.8%
CCCC(=O)Nc1ccc2oc(-c3cc(Br)ccc3Cl)nc2c1	-6.6%
O=[N+]([O-])c1ccc(Cl)c(S(=O)(=O)NCc2ccccn2)c1	12.3%
CCCCc1ccc(-c2csc(/C(C#N)=C/c3ccc(O)c(OCC)c3)n2)cc1	6.2%
O=C(CCCC(=O)N1CCCCC1)NCc1ccco1	5.5%
O=C(NC(=O)c1ccccc1)Oc1ccc([N+](=O)[O-])cc1	-1.2%
O=C(O)CCC(=O)Nc1ccccc1-c1ccccc1	15.5%
CCOc1ccc(NC(=O)C2=C(C)NC(=O)NC2c2cccc(OC)c2OC)cc1 (stereo not given)	-7%
CCN(CC)c1ccc(Nc2nc(-c3c(C)nc4ccccn34)cs2)cc1	-34.4%
COc1ccc(OC(C)C(=O)Nc2ccc(F)cc2)cc1 (stereo not given)	12.3%
Cc1cc(C)cc(N2C(=O)NC(=O)/C(=C\c3ccc(N4CCOCC4)o3)C2=O)c1	-145%
COc1cc(SC)ccc1C(=O)N1CCCC(C)C1 (stereo not given)	0.6%
C=CCN1C(=O)/C(=C/c2c(C)cc(C)cc2C)SC1=S	5.5%
CC(C)c1ccc(-c2nc3sc4c(c3c(=O)[nH]2)CCCC4)cc1	-13.5%
O=C(Nc1ccccn1)c1ccccc1O	1%
Cc1n[nH]c(C)c1CCCCOc1ccccc1	11.1%
CCc1ccccc1NC(=O)/C(C#N)=C\c1ccc(Sc2ccccc2)o1	-12.2%
O=C1N=c2ccc(Br)cc2=C1c1sc(=S)n(Cc2ccco2)c1O	22.5%
CC(C)CNC(=O)NC1C(NC(=O)NCC(C)C)N(C)C(=O)N1C (stereo not given)	0.7%
COc1ccc(C(=O)NCCNc2ccc([N+](=O)[O-])cc2)cc1OC	6.5%

SMILES	displacement
O=[N+]([O-])c1ccc(C2NN=C(c3ccccc3)S2)cc1 (stereo not given)	-1.4%
CCN1C(=O)/C(=C\c2ccccc2OCCOc2cccc(OC)c2)SC1=S	0.8%
CC/C(=N\NC(=O)c1ccc(C)o1)c1ccccc1O	-6.5%
Cc1cccc(C)c1NC(=O)C1CCCNC1 (stereo not given)	-4.6%
C/C(=N\N=C1\NC(=O)C(CC(=O)Nc2ccc(Cl)cc2Cl)S1)c1ccc(Cl)cc1 (stereo not given)	15.5%
O=C(Nc1ccc(Cl)cc1)c1ccccc1F	-4.2%
CCOC(=O)C1NN=C(C(=O)c2ccccc2)C1c1ccc(Cl)cc1 (stereo not given)	0.8%
CC(C)COC(=O)c1ccc(NC(=O)COc2ccc(Cl)cc2Cl)cc1	-2.5%
O=C(Nc1ccc(Cl)cc1Cl)c1ccc(I)cc1	8.9%
O=C(NC(=S)Nc1ccc(-c2nc3ccccc3s2)cc1)c1ccccc1Cl	-1.6%
COc1cc(OC)cc(C(=O)NC2CC2)c1	2.2%
COc1ccc2[nH]c(C(=O)N3CCOCC3)cc2c1	-16.2%
COc1cc(OC)cc(C(=O)Nc2cccc(NC(C)=O)c2)c1	-6.4%
CCN(CC)C(=O)c1cnn(-c2ccccc2)c1NC(=O)c1ccccc1Cl	9.1%
Oc1c(Cl)cc(Cl)cc1/C=N/N=C/c1cc(Cl)cc(Cl)c1O	2.9%
C/C(=N\N=C1\NC(=O)C(CC(=O)Nc2ccccc2C(F)(F)F)S1)c1ccco1 (stereo not given)	-7.9%
CCN1C(=O)/C(=C\c2ccc(-c3ccc(Cl)cc3Cl)o2)SC1=S	11.4%
O=c1[nH]c(/C=C\c2ccccc2Cl)c([N+](=O)[O-])c(=O)[nH]1	12.4%
Cc1ccc(NC(=O)CC2SC(=Nc3ccccc3)N(c3ccccc3)C2=O)cc1 (stereo not given)	-2.2%
CCOc1cc(/C=N/NC(=O)C(=O)Nc2ccccc2OC)ccc1O	6.3%
Cc1cc2c(cc1C)-c1nc3ccccc3c(=O)n1C(C)(C)C2	6.6%
O=C(CNc1n[nH]c(=O)[nH]c1=O)N/N=C/c1ccc(C(F)(F)F)cc1	-5.8%

SMILES	displacement
COc1ccc(CN2CCN(C(=O)C(c3ccccc3)c3ccccc3)CC2)c(OC)c1	18.2%
CCOc1ccc(C(=O)NCc2cccs2)cc1OCC	-0.9%
Cc1ccc(N2C(=O)CC(N3CCCC3)C2=O)cc1 (stereo not given)	-2%
CN1C(=O)NC(=O)/C(=C/c2ccc(O)c([N+](=O)[O-])c2)C1=O	-7.9%
CCn1nnnc1-c1ccc(OC)c(S(=O)(=O)NCCc2ccc(OC)c(OC)c2)c1	8.3%
O=C(Nc1ccc2[nH]c(=O)[nH]c2c1)c1cc(C(F)(F)F)cc(C(F)(F)F)c1	-9.6%
Cc1cc(OCC(=O)Nc2ccc3oc(-c4cccnc4)nc3c2)cc(C)c1Cl	-5.1%
CCN(C(=O)c1cc2cc(OC)ccc2oc1=O)c1ccccc1	0.4%
O=C(c1ccccc1[N+](=O)[O-])N1CCN(C/C=C/c2ccccc2)CC1	9.8%
CN(C)c1ccc(NC(=O)Cc2ccc(Cl)cc2)cc1	-2.4%
Cc1cccc(-n2c(C)cc(/C=N/NC(=O)c3cccnc3)c2C)c1	-30.1%
CCCCOc1ccc2c(C)c(CC)c(=O)oc2c1C	-3.1%
O=C(COc1ccccc1)NCC(=O)N/N=C/C(Br)=C/c1ccccc1	-1.7%
Cc1ccc(N2C(=O)CC(NCCc3ccccc3Cl)C2=O)cc1 (stereo not given)	8.7%
O=C(Nc1ccc(Br)cc1Br)c1ccccc1F	1.2%
O=C1CC(N2CCN(c3ccccn3)CC2)C(=O)N1c1cccc2ccccc12 (stereo not given)	1.5%
CC1=C(C(=O)Nc2ccc(C)cc2)C(c2ccc([N+](=O)[O-])cc2)NC(=O)N1 (stereo not given)	-3.6%
Cc1ccc(NC(=O)C2CC2(c2ccccc2)c2ccccc2)cc1 (stereo not given)	4.1%
Cc1ccc(C(=O)Oc2ccc(/C=c3/sc4nc5ccccc5n4c3=O)cc2)cc1	10.2%
c1ccc(CCCN2CCN(C3CCN(Cc4ccccc4)CC3)CC2)cc1	-7.2%
CCOC(=O)c1cc(=O)n2[nH]c(-c3ccc(Cl)cc3)cc2n1	-8.7%
COc1ccc(S(=O)(=O)N2CCC(CN3C(=O)c4cccc5cccc(c45)C3=O)CC2)cc1	4.9%

SMILES	displacement
O=C(COC(=O)c1ccc(S(=O)(=O)N2CCCCC2)cc1)c1cccc([N+](=O)[O-])c1	-1.1%
CCOc1cccc(C(=O)Nc2ccccc2C(=O)O)c1	12.4%
Cc1cc(C)nc(NC(N)=NC2CCCCCC2)n1	-10.2%
O=C1c2ccccc2C(=O)N1CCCSc1nc2ccccc2o1	-11.9%
Cc1cc(C)c(C(N)=O)c(Nc2cc(Cl)ccc2Cl)n1	-13.9%
O=C(CCN1C(=O)S/C(=C\c2ccccc2)C1=O)Nc1ccccc1	10.5%
C=CCn1c(O)c(C2=c3cc(Cl)ccc3=NC2=O)sc1=S	-14.2%
Cc1cc2nc3s/c(=C\c4cccc(Cl)c4Cl)c(=O)n3c2cc1C	1.7%
COC(=O)c1ccc(Cl)c(NC(=O)C(C)NC(=O)C(c2ccccc2)c2ccccc2)c1 (stereo not given)	1.1%
O=C1C(Cl)=C(Nc2ccc(Cl)cc2)C(=O)c2ccccc21	-9.7%
C=CCN1C(=O)/C(=C\c2ccc(C(=O)OC)cc2)C(=O)NC1=S	16.1%
C/C(=N\NC(=O)CCc1ccccc1)c1cccc(N)c1	4.1%
O=c1/c(=C/c2cccc(C(F)(F)F)c2)sc2nc3ccccc3n12	4.3%
CC(=O)NC(=N/OC(C)=O)/C(=N/OC(C)=O)c1nc2ccccc2[nH]1	-2.3%
O=C(/C=C/c1cccc([N+](=O)[O-])c1)NCc1ccco1	-3.6%
Cc1cccc(N2C(=O)NC(=O)/C(=C\c3ccc(-c4ccccc4C(=O)O)o3)C2=O)c1	-5.1%
CC(C)OC(=O)C1C(=O)CC(C)(O)C(C(=O)OC(C)C)C1c1ccc(F)cc1 (stereo not given)	1.1%
COC(=O)c1ccc(/C=N/NC(=O)CCc2c(C)n[nH]c2C)cc1	4.2%
Cc1cc(C)nc(Nc2nc3ccccc3s2)n1	-8%
COc1ccc(Cc2noc(Cc3ccc(Cl)cc3)n2)cc1	-5.3%
Cc1ccc(C)c(NC(=O)COc2ccc3ccccc3c2)c1	-4.6%
C/C(=N\Nc1nc(C)cc(-c2ccccc2)n1)c1ccc(C)cc1	-6.4%
